The data scatter; read single values as rough.
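Also: [psi-pin-] Saccharomyces cerevisiae expressing SupN fusions, induced by 100 µM Cu2SO4, selected 7 d at 30 °C without adenine and uracil, scored by deep sequencing of output versus input.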

The first data set in a line: amyloid nucleation score relative to library mode (yeast Sup35 reporter selection) (log enrichment difference); higher = more amyloid nucleation; sequences are the first 22 residues of the Bri2 peptide extended by up to 12 random residues. Particulars: random library (experiment): 1;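 active = nucleation score significantly above 0 at FDR 0.05; inactive = not significantly above 0 or absent from output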.
Consider EASNCFAIRHFENKFAVETLICLHLVPFSESVSS, for which the amyloid nucleation score entry was “inactive”.

Regarding EASNCFAIRHFENKFAVETLICLHLVVVGSQMRG, the amyloid nucleation score entry was “inactive”.

EASNCFAIRHFENKFAVETLICLHLWCG: the amyloid nucleation score result was “inactive”.

As for EASNCFAIRHFENKFAVETLICLHLWWYHVMDRN, the amyloid nucleation score result is “inactive”.

EASNCFAIRHFENKFAVETLICLHRWKYQGMGRS yielded an amyloid nucleation score of 3.96.

Regarding EASNCFAIRHFENKFAVETLICLHSPGSLFEVVV, the amyloid nucleation score result is “inactive”.

Turning to EASNCFAIRHFENKFAVETLICLHTCTGNMLWW, the amyloid nucleation score result was “inactive”.

On to EASNCFAIRHFENKFAVETLICLHTSGCAGIGSG, for which the amyloid nucleation score result is “inactive”.

In the case of EASNCFAIRHFENKFAVETLICLHVLVRARDRIY, the amyloid nucleation score is 0.474.

On to EASNCFAIRHFENKFAVETLICLHVWRLIPMVRH, for which the amyloid nucleation score result was “inactive”.

For the sequence EASNCFAIRHFENKFAVETLICLHWYGTHGLLVL, the amyloid nucleation score result is “inactive”.

Consider EASNCFAIRHFENKFAVETLICLHYGGIGGLLSL, for which the amyloid nucleation score came out at 4.

In the case of EASNCFAIRHFENKFAVETLICLI, the amyloid nucleation score worked out at 6.52.

Sequence EASNCFAIRHFENKFAVETLICLICVRSRYCRGV had an amyloid nucleation score of -0.475.

In turn, EASNCFAIRHFENKFAVETLICLIDIEFSSDGAR displayed an amyloid nucleation score of 5.6.

Take EASNCFAIRHFENKFAVETLICLIDMRFAGVSKR: the amyloid nucleation score came to 1.32.

As for EASNCFAIRHFENKFAVETLICLIELETLDSYLR, the amyloid nucleation score entry was “inactive”.

Consider EASNCFAIRHFENKFAVETLICLIGKLGGRYYAS, for which the amyloid nucleation score entry was “inactive”.

The data set is the same for the next values; noted with them: random library (experiment): 2.
For EASNCFAIRHFENKFAVETLICLHLVSMSTSTN, the amyloid nucleation score entry was “inactive”.

Take EASNCFAIRHFENKFAVETLICLHLYSFDGYVGY: the amyloid nucleation score result is “inactive”.

EASNCFAIRHFENKFAVETLICLHMLGFFISDVR: the amyloid nucleation score result was “inactive”.

EASNCFAIRHFENKFAVETLICLHPR yielded an amyloid nucleation score of 1.93.

In turn, EASNCFAIRHFENKFAVETLICLHQVQMHRKG registered an amyloid nucleation score of 0.528.

Regarding EASNCFAIRHFENKFAVETLICLHTALKGSMVIG, the amyloid nucleation score entry was “inactive”.

As for EASNCFAIRHFENKFAVETLICLHTCAVTYLWG, the amyloid nucleation score result is “inactive”.

In turn, EASNCFAIRHFENKFAVETLICLHTCIFSGDM came in with an amyloid nucleation score of 3.68.

Consider EASNCFAIRHFENKFAVETLICLHWSRASVCESL, for which the amyloid nucleation score result was “inactive”.

Regarding EASNCFAIRHFENKFAVETLICLHYNFGENSFRS, the amyloid nucleation score is 3.47.

On to EASNCFAIRHFENKFAVETLICLHYVVCHGLSVT, for which the amyloid nucleation score entry was “inactive”.

EASNCFAIRHFENKFAVETLICLIAVWA: the amyloid nucleation score was 0.58.

With EASNCFAIRHFENKFAVETLICLIDYILLGSNSR, the amyloid nucleation score result was “inactive”.

The sequence EASNCFAIRHFENKFAVETLICLIDYNVSNPLYG returned an amyloid nucleation score of 0.892.

On to EASNCFAIRHFENKFAVETLICLIEVRYLQEFRK, for which the amyloid nucleation score entry was “inactive”.

For the sequence EASNCFAIRHFENKFAVETLICLIFDSVFVGILR, the amyloid nucleation score is -0.255.

As to EASNCFAIRHFENKFAVETLICLIFTMISLGNDG, the amyloid nucleation score entry is “inactive”.

Regarding EASNCFAIRHFENKFAVETLICLIGDLPFISVGW, the amyloid nucleation score result was “inactive”.

For EASNCFAIRHFENKFAVETLICLIGGSFKDRPFR, the amyloid nucleation score was 7.28.

The same data set, now with this note: random library (experiment): 3.
The sequence EASNCFAIRHFENKFAVETLICLHPPSIFMSTSS yielded an amyloid nucleation score of 4.39.

Consider EASNCFAIRHFENKFAVETLICLHSYFRALALFT, for which the amyloid nucleation score entry was “inactive”.

For the sequence EASNCFAIRHFENKFAVETLICLHVAMQPKGAKS, the amyloid nucleation score entry was “inactive”.

EASNCFAIRHFENKFAVETLICLHVMGMLGPR: the amyloid nucleation score turned out to be 3.03.

Values taken from the supplement of paper PMC12067230.
